Measured values reported in the RNAGym collection of RNA variant scans (doi:10.1073/pnas.2313332121).
Variants at the floor of the assay are shown more often than the library holds them.

B1: TPR 5TU (parent)
chain: GGAUCUUCUCGAUCUAACAAAAAAGACAAAUCUGCCACAAAGCUUGAGAGCAUCUUCGGAUGCAGAGGCGGCAGCCUUCGGUGGCGCGAUAGCGCCAACGUUCUCAACUAUGACACGCAAAACGCGUGCUCCGUUGAAUGGAGUUUAUCAUG

Variants of: B1
Assay: polymerase ribozyme fitness, log enrichment relative to wild type (log ratio); higher = more active; in vitro selection for triplet polymerase activity
How it was run: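 Fitness is a logarithmic measure of how a genotype enriched relative to the wild type, with replicate averages weighted by inverse variance. The logarithm uses base 2, and enrichment came from Illumina sequencing of input and output libraries. Those libraries were PCR-built, transcribed mutants of each subunit of a heterodimeric triplet polymerase ribozyme, passed through one triplicate in vitro selection round that included frozen incubation at −7 °C, gel excision of extended constructs and streptavidin-bead capture. Genotypes were kept only if they had ≥10 input reads and ≥1 read per output.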

Variant | polymerase ribozyme fitness (log ratio)
GGAUCUUCUCGGUCUAACAAAAAAGACAAAUCUGCCACAAAGCUUGAGAGCAUGUUCGGAUGCAGAGGCGGCAGCCUUCGGUGGCGCGAUAGCGCCAACGUUCUCAACUAUGACAUGCAAAACGCGUGCUCCGUUGAAUGGAGUUUAUCAUG | -0.574
GGAUCUUCUCGGUCUAACAAAAAAGACAAAUAUGCCAUAAAGCUUGAGAGCAUCUUCGGAUGCAGAGGCGGCAGCCUUCGGUGGCGCGAUAGCGCCAAAGUUCUCAACUAUGACACGCAAAACGCGUGCUCCGUUGAAUGGAGUUUAUCAUG | ≤ -4.2
GGAUCUUCUCGGUCUAACACAAAAGACAAAUCUGCCACAAAGCUUGAGAGCAUCUUGGGAUGCAGAGGCGGCAGGCUUCGGUGGUGCGAUAGCGCCAACGUUCUCAACUAUGACGCGCAAAACGCGUGCUCCGUUGAAUGUAGUUUAUCAUG | ≤ -4.2
GGAUCUUCUCGGUCUAACAAAAAAGACGAAUCUGCCACAAAGCUUGAGAGCAUCUUCGGAAGCAGAGGCGGCAGCCUUCGGUGGUGCGAUAGCGCCAACGUUCUCAACUAUGACACGCAAAACGCGUGCUCCGUUGAAUGGAGUUUAUCAUG | ≤ -4.2
GGAUCUUCUCGGUCUAACAAAAAAGACAAAUCUGCCACCAAGCUUGAGAGCAUCUUCGGAUGCAGAGGCGGCAGGCUUCGGUGGCACGAUAGCGCCAACGUUCUCAACUAUGACACGCAAAACGCGUGCUCCGUUGAAUGGAGUUUAUCAUG | ≤ -4.2
GGAUCUUCUCGGUCUAACAAAAAAGACAAAUCUGACACAAAGCUUGAGAGCAUCUUCGGAUGCAGAGGCGGCAGCCUUCGGUGGCGCGAUAGCGUCAACGUUCUCUACUAUGACACGCAAAACGCGUGCUCCGUUGAAUGGAGUUUAUCAUG | ≤ -4.2
GGAUCUUCUCGGUCUAACGAAAAAGACAAUUCUGCCACAAAGCUUGAGAGCAUAUUCGGAUGCAGAGGCGGCAGCCUUCGGUUGCGCGAUAGCGCCAACGUUCUCAACUAUGACACGCAAAACGCAUGCUCCGUUGAAUGGAGUUUAUCAUG | ≤ -4.2
GGAUCUUCUCGGUCUAACAAAAAAGACAAAUCUGCCACAAAGCUUGAGAGCAUAAUCGGAUGCAGAGGCGGCAGCCUUGGGUGGUGCGAUAGCGCCAACGUUCUCAACUAUGAGACUCAAAACGCGUGCUCCGUUGAAUGGAGUUUAUCAUG | ≤ -4.2
GGAUCUUCUCGGUCUAACAAAAAAGACAAAUCUGCCUCAAAGCUUGAGAGCAUCGUCGGAUGCAGAGGCGGCAGCCUUCGGUGGCGCGAUAGCGCCAACGUUCUCAACUAUGCCACGCAAAACGCGUGCUCCGUUGAAUGGAGUUUAUCAUG | ≤ -4.2
GGAUCUUCUCGGUCUAACCAAAAAGACAAAUCUGCCACGAAGCUUGAGAGCAUAUUCGGAUGCAGAGGCGGCAGCCUUCGGUGGCGCGAUAGCGUCAACGUUCUGAACUUUGACACGCAAAACGCGUGCUCCGUUGAAUGGAGUUUAUCAUG | ≤ -4.2
GGAUCUUCUCGGUCUAACAAAAAAGACAAAUCUGCCACAAAGCUUGAGAGCCUCUUCGGAUGCAGAGGCGGCAGGCUUCGGUGGAGCGAUAGCGCCAACGUUCUCAACUAUGACACGCAAAACGCGGGCUCCGUUGAAUGGAGUUUAUCAUG | ≤ -4.2
GGAUCUUCUCGGUCUAAGAAAAAAGACAAAUCUGCCACAAAGCUUGAGAGCAUCUUCAGAUGCAGAGGCGGCAGCCGUCGGUGGCGCGAUAGCGCGAACGUUCUCAACUAUGACACGCAAAACGCGUGCUCCGUUGAAUGUAGUUUAUCAUG | ≤ -4.2
GGAUCUUCUCGGUGUAACAAAAAAGACAAAACUGCCACAAAGCUUGAGAGCAUCGUCGGAUGCAGAGGCGGCAGCCUUCGGUGGCGCUAUAGCGCCAACGUUCUCAACUAUGACACGCAAAACGCGUGCUCCGUUGAAUGGAGUUUAUCAUG | ≤ -4.2
GGAUCUUCUCGGUGUAAUAAAAAAGACAAAACUGCCACAAAGCUUGAGAGCAUCUGCGGAUGCAGAGGCGGCAGCCUUCGGUGGCGCGAUAGCGCCAACGAUCUCAACUAUGACACGCAAAACGCGUGCUCCGUUGAAUGGAGUUUAUCAUG | -2.32
GGAUCUUCUCGGUCUAACAAAAAAGAUAAAUCUGCCACAUAGCUUGAGAGCAUCUUCGGAUGCAGAGGCGGCGGCCUUCGGUGGCGGGAUAGCGACAACGUUCUCAACUAUGACACGCAAAACUCGUGCUCCGUUAAAUGGAGUUUAUCAUG | ≤ -4.2
GGAUCUUCUCGGUCUAACAAAAAAGGCAAAUCUGCCACAAAGCUUGAGAGCAUCUUAGGAUGCAGAGGCGGCAGCCUUCGGUGGCGCGAUAGCGCAAACGUUCUCAACUAUGACACACAAAACGCGUGCUCCGUUGAAUGGAGUUUAACAUG | ≤ -4.2
GGAUCUUCUCGGUCUAACAAAAAAGACAAAUCUGCCAUAAAGCUUGAGAGCAUCUUCGGAUGCAGAGGCGGCAGCCUUCGGUGGCGCGAUAGCGCCAAUGUUCUCAACUAUGACACGCAAAACGCGUGCUCCGUUGAAUGGAGUUUAUCAUG | -0.24
GGAUCUUCUCGGUCUAAUAAAAAAGACAAAUCUGCCACAAAGCUUGCGAGCAUCUUCGGGUGCAGAGGCGGCAGCCUUCGGUGGUGCGAUAGCGCCAACGUUCUCAACUAUGACACGCAAAACGCGUGCUCCGUUGAAUGGAUUUUAUCAUG | ≤ -4.2
GGAUCUUCUCGGUCUAACAAAAAAGACAAAUCUGCCACAAAGCUUGAGAGCCUCUUCGGAUGCAGAGGCGGCAGCCUUCGGUGGCGCGAUAGUGCCAUCGUUCUCAACUAUGACACGCAAAACACGUGCUCCGUUGAAUGGAGUUUAUCAUG | -2

Variant | polymerase ribozyme fitness (log ratio)
GGAUCUUCUCGGUGUAACAAAAAAGACAAAUCUGCCACAAAGCUUGAGAGCCUCUUCGGAUGCAGAAGCGGCAGCCUUCGGUGGCGCGAUAGCGCCAACGUUCUCAACUAUGACACGCAAAACACGUGCUCCGUUGCAUGGAGUUUAUCAUG | ≤ -4.2
GGAUCUUCUCGGUCUAACAAAAAAGAGAAAUCUGCCACAAAGCUUGAGAGCAUCUUCGGAUGCAGAGGCGGCAGCCUUCGGUCGCGCGAUAGCGCCUACGUUCUCAACUAUGACACGCAAAAUGCGUGCUCCGUUGAAUGGAGUUUAUCAUG | ≤ -4.2
GGAUCUUCUCGGUCUAACAAAAAUGACAAAUCUGCCACAAAGCUUGAGAGCAACUUCGGAUGCAGAGGCGGCAGCCUUCGGGGACGCGUUAGCGCCAACGUUCUCAACUAUGACACGCAAAACGCGUGCUCCGUUGAAUGGAGUUUAUCAUG | -3.13
GGAUCUUCUCGGUCUAAGAAAAAAGACAACUCUGCCACAAAGCUUGAGAGCAUCUUCGGAUGCAGAGGCGGCAGCCUUCGGUGGCGCGAUAGCGCCAAAGUUCUCAACUAUGACACGCAAAACGCGUGCUCCCUUGAAUGGAGUUUAUCAUG | ≤ -4.2
GGAUCUUCUCGGUCUAAGAAAAAAGACAAAUCUGCCACAAAGCUUGAGAGCAUCUUCCGAUGCAGAGGCGGCAGCCUUCGGUGGCGCGAUAGCGCCAACGUUGUCAACUAUGAAACGCGAAACGCGUGCACCGUUGAAUGGAGUUUAUCAUG | ≤ -4.2
GGAUCUUCUCGGUCUAACAAAAAAGACAAUUCUGCCACAAAGCUUGAGAGCAUCUGCCGAUGCAGAGGCGGCAGACUUCGGUGUCGCGAUAGCGCCAACGUUCUCAACUAUGACAAGCAAAACGCGUGCUCCGUUGAAUGGAGUUUAUCAUG | ≤ -4.2
GGAUCUUCUCGGUCUAACAAAAUAGACAAAUCUGCCACAAAGCUUGAGAGCAUCUUCGGAUGCAGAGGCGGCAGCCUUCGGUGGGGCGAUAGCGCCAACGUUCUCAACUAUGACACGCAAAACGCGUGCUCCGUUGAAUGGAGUUUAUCGUG | ≤ -4.2
GGAUCUUCUCGGUCUAACAAAAAUGACAAAUCUACCACAAAGCUUGAGAGCAUCUUCGGAUGCAGAGGCGGCAGCCUUCGGUGGCGCGAUAUCGCCAACGUUCUCAACUAUGACACGCAAAACGCCUGCUCCGUUGAAUGGAGUUUAUCAUG | -1.83
GGAUCUUCUCGGUCUAACAAAAAAGACAACUCUGCCACAAAGCUUGAGAGCAUCUUCGGAUGCAGAGGCGGCAGCCUUCGGUGGCUGGAUAGUGCCAACGUUCUCAACUAUGACACGCAAAACGCGUGCUCCGUUGAACGGAGUUUAUCAUG | ≤ -4.2
GGAUCUUCUCGGUCUAACAAAAAGGACAAAUCUGACACAAAGCGUGAGACCAUCUUCGGAUGCAGAGGCGCCAGCCUUCGGUGGCGCGAUAGCGCCAACGUUCUCAACUAUGACACGCAAAACACGUGCUCCGUUGAAUGGAGUUUAUCAUG | ≤ -4.2
GGAUCUUCUCGGUGUAACAAAGAAGACAAAUCUGCCACAAAGCUUGAGAGCAUCUUCGGAAGCAGAGGCGACAGCCUUCGGUGGCGCGAUAGCGCCAAUGUUCUCAACUAUGACACGCAAAAUGCGUGCUCCGUUGAAUGGGGUUUAUCAUG | ≤ -4.2
GGAUCUUCUCGGUCUAACAAAAAAGACAAAUCUGCCACAAAGCUUGAGAGGAUCUUCGGAUGCAGAGCCGGCAGCCUUCGGUGGGGCGAUAGCGCCAACGUUCUCAACUAUGACACGCAAAACGCGUGCUCCGUUGAAUGGAGUUUAUCCUG | ≤ -4.2
GGAUCUUCUCGGUCUAACAUAAAAUACAAAUCUGCCACAAAGCUUGAGAGCAUCAUCGGAUGCAGAGGCGGCAGCCUUCGGUGGCGCGAUAGCGCCAACGUUCUCGACUAUGACACGCAAAACGCGUGCUCCGUUGAUUUGAGUCUAUCAUG | ≤ -4.2
GGAUCUUCUCGGUGUAACAAAAAAGACAAAUCUGCCACAAAGCUUGAGAGCAUCUUCGGAUGCAGAGGCGGCAGCCUUCGGUGGCGCGAUAGCGCCUACGUUCUCAACUAUGACACGCAAAACGCGUGCUCCGUUGAAUGGAGUUUAUCAUG | -2.49
GGAUCUUCUCGGUCUGACAAAAAAGACAAAUCUGCCACAAAGCGUGAGAGCAUCUUCGGAUGCAGAGGCGGCAGCCUUCGCUGACGCGAUAGCGUCAACGUUCUCAACUAUGACACGCAAAACGCGUGCUCCGUUGAAUGGAGAUCAUCAUG | ≤ -4.2
GGAUCUUCUCGGUUUAACAAAAAAGACAAAUCAGCCACAAAGCUUGAGAGCAUCUUCGGAUGCAGAGGCGGCAGCCUUCGGUGACGCAAUAGCGCCAACGUUCUCAACUAUGACACGCAAAACGCGUGCUCCGUUGAAUGGAGUUUAUCAUG | ≤ -4.2
GGAUCUUCUCGGUCUAACAAAAAAGACAAAUCUGCCGCAAAGCUUGAGAGCUUCUUCGGAUGCAGAGGCGGCGGCCUUCGGUUGCGCGAUAGCGCCAACGUUCUCAACUAUGACACGCAAAACGCGUGCUCCGUUCAAUGGAGUUUAUCAUG | ≤ -4.2
GGAUCUUCUCGGUCUAGCAGAAAAGACAAAUCUGCCACUAAGCUUGAGACCAUCUUCGGAUGCAGCGGCGGCAGCCUUCGGUGGCGUGACAGCGCCAACGUUCUCAACUAUGACACGCAAAACGCGUGCUCCGUUGAAUGGAGUUUAUCAUG | ≤ -4.2
GGAUCUUCUCGGUGUAACAAAAAAGACAAAUCUGCCACAAAGCUUGAGAGCAUCUUCGGAUGCAGAGGCGGCAGCCUUCGGUGGCGCGAUACCGCCAACGUUCUCAACUAUGACACGCAAAACGCGUGCUCCGUUGAAUGGAGUUUAUCAUG | -2.86
